# Measured values reported in PubChem BioAssay (Tox21).
# Inconclusive means that the source gave no clear call. Such entries were picked first, then a sample of the others. For some of these results: Potencies beside an inconclusive call are fits to weak or partial responses and may not hold up. Where a structure was tested more than once in an assay, its records may differ in their call. Activity calls are given as the source filed them. Unless noted, calls come from the whole dose curve; as a rule, active = well fitted curve in the direction sought with a large enough effect in the repeat runs; inconclusive = weak or mixed curves; inactive = no such curve, though single readings can be large; an effect the other way counts as inactive or inconclusive.
# Experiments:
# [1] = Human pregnane X receptor (PXR) small molecule agonists, qHTS cell viability counter screen (AID 1346977); note: nearly all actives have a fitted effect of over 50% in size; note: potency is the fitted concentration of half-maximal effect
# Procedure, shortened: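 After a 5hr pre-incubation, PXR-Luc HepG2 cells received compounds plus positive control in DMSO and were kept 24hr at 37C. Cell viability was quantified by fluorescence from CellTiter-Fluor added for the final hour.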
# [2] = target: Nuclear receptor subfamily 1 group I member 2 (Homo sapiens) (UniProt O75469); assay: Human pregnane X receptor (PXR) small molecule agonists, qHTS assay (AID 1346982); note: nearly all actives have a fitted effect of over 35% in size; note: potency is the fitted concentration of half-maximal effect
# Procedure, shortened: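 Luminescence (ONE-Glo, 30 min RT) after 24 hr compound exposure of PXR-Luc HepG2 cells; cells rested 5 hr post-plating in 5% charcoal-stripped FBS medium.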
# [3] = target: Cytochrome P450 2D6 (Homo sapiens) (UniProt P10635); assay: Cytochrome P450 Family 2 Subfamily D Member 6 (CYP2D6) small molecule antagonists: luciferase reporter qHTS assay (AID 1671196); note: nearly all actives have a fitted effect of over 50% in size; note: potency is the fitted concentration of half-maximal effect
# Procedure, shortened: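 Inhibition of CYP2D6 was gauged by loss of luminescence, since light produced tracks the luciferin generated from a proluciferin substrate. A 10 min room-temperature preincubation preceded 1 h NADPH-supported turnover.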
# [4] = Caspase-3/7 induction in CHO-K1 cells by small molecules, qHTS cell viability counter screen (AID 1346979); note: nearly all actives have a fitted effect of over 35% in size; note: potency is the fitted concentration of half-maximal effect
# Procedure, shortened: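 Multiplexed with Caspase-Glo 3/7 in CHO-K1 cells, this counter screen added CellTiter-Fluor after 16hr of compound exposure and recorded fluorescence 1hr later.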
# [5] = target: Cytochrome P450 2C19 (Homo sapiens) (UniProt P33261); assay: Cytochrome P450 Family 2 Subfamily C Member 19 (CYP2C19) small molecule antagonists: luciferase reporter qHTS assay (AID 1671197); note: nearly all actives have a fitted effect of over 65% in size; note: potency is the fitted concentration of half-maximal effect
# Procedure, shortened: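 Inhibition of CYP2C19 was scored from loss of luminescence in a P450-Glo proluciferin substrate assay, NADPH-started and run 1 h at 37C, with ketoconazole as positive control.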
# [6] = target: Acetylcholinesterase (Homo sapiens) (UniProt P22303); assay: Acetylcholinesterase (AChE) small molecule antagonists: fluorescence cell-based qHTS assay (AID 1347398; calls by dose curve; note: nearly all actives have a fitted effect of over 50% in size; note: potency is the fitted concentration of half-maximal effect); settings: Potency: AChE activity
# Procedure, shortened: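 Thiocholine generated from acetylthiocholine by SH-SY5Y cell AChE is detected with Thiolite Green (Ex/Em 490/520 nm) after 40 min at room temperature, following 30 min compound pretreatment at 37 C.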
# [7] = target: Nuclear receptor subfamily 1 group I member 2 (Homo sapiens) (UniProt O75469); assay: Human pregnane X receptor (PXR) activation by small molecules, qHTS assay (AID 1346985); note: potency is the fitted concentration of half-maximal effect; nearly all actives have a fitted effect of over 40% in size
# Procedure, shortened: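 DPX-2 cells (HepG2 co-transfected with a PXR response element and a CYP3A4-promoter luciferase construct) were seeded at 2,000 per well, rested 5 hr at 37C, then exposed to DMSO-dissolved compounds for 24 hr. Activation was read as luciferase luminescence.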
# [8] = Caspase-3/7 induction in HepG2 cells by small molecules, qHTS assay (AID 1346978); note: nearly all actives have a fitted effect of over 15% in size; note: potency is the fitted concentration of half-maximal effect
# Procedure, shortened: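 Wild-type HepG2 cells (2,000/well) were settled 5 h at 37 C, 5% CO2, then exposed to compounds in DMSO for 17 h. Caspase-3/7 activity was read by luminescence 30 min after adding Caspase-Glo 3/7 reagent at room temperature.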
# [9] = target: Acetylcholinesterase (Homo sapiens) (UniProt P22303); assay: Acetylcholinesterase (AChE) small molecule antagonists: enzyme-based qHTS assay (AID 1347397; calls by dose curve; note: nearly all actives have a fitted effect of over 55% in size); settings: Potency: AChE enzyme activity inhibition
# Procedure, shortened: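 Human recombinant acetylcholinesterase; substrate acetylthiocholine; thiocholine quantified with DTNB (colorimetric). Compound preincubation 30 min RT; reaction 10 min RT.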
# [10] = Caspase-3/7 induction in HepG2 cells by small molecules, qHTS cell viability counter screen (AID 1346981); note: nearly all actives have a fitted effect of over 30% in size; note: potency is the fitted concentration of half-maximal effect
# Procedure, shortened: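 Counter screen for cytotoxicity: HepG2 exposed 16 hr to compounds, then CellTiter-Fluor viability signal (fluorescence, 1 hr reagent incubation).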
# [11] = target: Acetylcholinesterase (Homo sapiens) (UniProt P22303); assay: Acetylcholinesterase (AChE) small molecule antagonists: colormetric cell-based qHTS assay (AID 1347395; calls by dose curve; note: nearly all actives have a fitted effect of over 30% in size)
# Procedure, shortened: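 In this cell-based qHTS, attached SH-SY5Y cells were treated with test chemicals for 30 min, after which acetylthiocholine hydrolysis was followed by DTNB colour development over 90 min at 37 C.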
# [12] = target: Acetylcholinesterase (Homo sapiens) (UniProt P22303); assay: Acetylcholinesterase (AChE) small molecule antagonists: enzyme-based qHTS assay with human liver microsomes (AID 1347399; calls by dose curve; note: potency is the fitted concentration of half-maximal effect; nearly all actives have a fitted effect of over 60% in size); settings: Potency: qHTS inhibition
# Procedure, shortened: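 Recombinant human AChE (50 mU/mL in the enzyme mix) and human liver microsomes (0.25 mg/mL final) were preincubated with compound and NADPH (0.25 mg/mL final) for 30 min at 37 C. Acetylthiocholine/DTNB was then added; thiocholine was read colorimetrically after 10 min at room temperature.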
# Tags give direction and shape of the fitted curve.
# UniProt P10635, sequence (P10635 whole entry, looked up): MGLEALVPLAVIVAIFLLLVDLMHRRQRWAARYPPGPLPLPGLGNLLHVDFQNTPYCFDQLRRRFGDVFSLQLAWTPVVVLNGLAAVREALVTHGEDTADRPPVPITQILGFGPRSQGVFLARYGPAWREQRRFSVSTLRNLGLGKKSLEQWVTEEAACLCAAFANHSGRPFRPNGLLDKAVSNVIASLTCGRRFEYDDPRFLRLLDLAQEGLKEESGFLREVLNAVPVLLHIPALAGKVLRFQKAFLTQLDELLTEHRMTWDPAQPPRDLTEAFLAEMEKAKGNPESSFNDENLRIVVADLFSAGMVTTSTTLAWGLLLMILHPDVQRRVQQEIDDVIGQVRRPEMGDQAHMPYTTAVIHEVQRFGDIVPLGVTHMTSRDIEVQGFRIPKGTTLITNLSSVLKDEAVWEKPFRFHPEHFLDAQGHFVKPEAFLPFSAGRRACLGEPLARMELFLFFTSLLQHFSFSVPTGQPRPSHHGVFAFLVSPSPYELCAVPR
# UniProt O75469, sequence (O75469 whole entry, looked up): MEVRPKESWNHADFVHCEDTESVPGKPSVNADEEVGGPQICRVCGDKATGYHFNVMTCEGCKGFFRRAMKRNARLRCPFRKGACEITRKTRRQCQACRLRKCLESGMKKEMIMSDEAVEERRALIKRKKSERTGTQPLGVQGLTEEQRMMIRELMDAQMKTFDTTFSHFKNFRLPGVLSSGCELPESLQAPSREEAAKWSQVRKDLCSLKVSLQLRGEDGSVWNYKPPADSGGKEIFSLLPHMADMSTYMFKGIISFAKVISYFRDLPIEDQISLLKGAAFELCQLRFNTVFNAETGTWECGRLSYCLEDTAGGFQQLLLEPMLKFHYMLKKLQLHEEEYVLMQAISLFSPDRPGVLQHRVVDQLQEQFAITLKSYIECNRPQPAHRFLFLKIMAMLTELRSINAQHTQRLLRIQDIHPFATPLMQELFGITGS
# UniProt P22303, sequence (P22303 whole entry, looked up): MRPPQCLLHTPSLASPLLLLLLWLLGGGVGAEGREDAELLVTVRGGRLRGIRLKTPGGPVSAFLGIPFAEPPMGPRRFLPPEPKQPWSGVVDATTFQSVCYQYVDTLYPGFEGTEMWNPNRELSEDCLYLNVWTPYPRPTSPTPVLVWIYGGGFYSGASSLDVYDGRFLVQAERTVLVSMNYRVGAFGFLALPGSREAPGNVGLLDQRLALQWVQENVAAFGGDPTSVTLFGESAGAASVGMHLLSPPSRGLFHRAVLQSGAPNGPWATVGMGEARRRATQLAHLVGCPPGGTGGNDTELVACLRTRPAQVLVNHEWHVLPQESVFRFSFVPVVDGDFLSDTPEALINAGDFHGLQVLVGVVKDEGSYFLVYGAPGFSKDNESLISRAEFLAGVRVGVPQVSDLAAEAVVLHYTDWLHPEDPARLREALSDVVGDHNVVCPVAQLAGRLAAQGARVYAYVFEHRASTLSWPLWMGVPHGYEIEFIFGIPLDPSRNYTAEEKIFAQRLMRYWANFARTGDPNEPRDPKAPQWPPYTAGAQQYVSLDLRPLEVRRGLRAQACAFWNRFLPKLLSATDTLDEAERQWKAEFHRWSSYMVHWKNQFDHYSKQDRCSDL
# UniProt P33261, sequence (P33261 whole entry, looked up): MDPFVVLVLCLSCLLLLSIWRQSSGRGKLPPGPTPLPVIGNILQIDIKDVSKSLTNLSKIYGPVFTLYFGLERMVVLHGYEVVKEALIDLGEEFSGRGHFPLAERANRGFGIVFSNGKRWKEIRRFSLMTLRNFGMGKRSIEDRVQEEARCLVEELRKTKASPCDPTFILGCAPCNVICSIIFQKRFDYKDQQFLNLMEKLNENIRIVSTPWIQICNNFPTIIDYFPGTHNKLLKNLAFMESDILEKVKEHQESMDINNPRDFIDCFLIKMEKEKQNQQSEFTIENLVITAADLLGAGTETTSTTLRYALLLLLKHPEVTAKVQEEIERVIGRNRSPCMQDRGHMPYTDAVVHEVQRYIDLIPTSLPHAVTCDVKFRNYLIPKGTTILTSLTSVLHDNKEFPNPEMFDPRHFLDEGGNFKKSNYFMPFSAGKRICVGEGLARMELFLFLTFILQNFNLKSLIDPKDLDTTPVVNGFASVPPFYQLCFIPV
smiles,measurement,setting,value
C[N+](C)(C)CCCl,Potency,[1],inactive
same,Potency,[2],"inconclusive: 28 µM [activator, partial curve]"
same,Potency,[3],inactive
N#CS,Potency,[4],inactive
C[As+](C)(C)CC(=O)[O-],Potency,[1],inactive
same,Potency,[3],inactive
same,Potency,[5],inactive
C=CCc1cc(OC)c2c(c1)OCO2,Potency,[1],inactive
same,Potency,[6],inactive
COP(=S)(OC)Oc1cc(Cl)c(I)cc1Cl,Potency,[1],"inconclusive: 77 µM [cytotoxic, single point]"
same,Potency,[5],active: 2.24 µM
Cc1cc(C2CC2)nc(Nc2ccccc2)n1,Potency,[1],"inconclusive: 0.243 µM [rising, partial curve, poor fit]"
same,Potency,[3],"inconclusive: 63.3 µM [inhibitor, partial curve]"
Nn1cnnc1,Potency,[4],"inconclusive: 41.8 µM [rising, partial curve, poor fit]"
COC(=O)C(Br)CBr (centres undefined),Potency,[1],inactive
same,Potency,[5],"inconclusive: 89.4 µM [inhibitor, single point]"
CC(C)=C[C@@H]1[C@@H](C(=O)OCc2coc(Cc3ccccc3)c2)C1(C)C,Potency,[1],"inconclusive: 23.7 µM [rising, partial curve, poor fit]"
same,Potency,[2],"inconclusive: 33.5 µM [activator, single point]"
same,Potency,[7],active: 22.4 µM
Cn1cc[n+](C)c1 (tested in a mixture with another compound),Potency,[1],inactive
same,Potency,[5],"inconclusive: 50.6 µM [inhibitor, partial curve]"
O=C(O)CCCc1ccc(N(CCCl)CCCl)cc1,Potency,[8],"inconclusive: 77.3 µM [activator, single point]"
same,Potency,[2],"inconclusive: 77.3 µM [activator, single point]"
same,Potency,[3],"inconclusive: 27.5 µM [inhibitor, partial curve, poor fit]"
same,Potency,[5],"inconclusive: 3.89 µM [inhibitor, single point]"
CC(=[OH+])/C=C(/C)[O-].CC(=[OH+])/C=C(\C)[O-].CC(=[OH+])/C=C(\C)[O-].[Fe],Potency,[8],inactive
same,Potency,[3],"inconclusive: 2.52 µM [inhibitor, partial curve, poor fit]"
same,Potency,[5],inactive
CCn1cc[n+](C)c1C,Potency,[1],inactive
same,Potency,[3],"inconclusive: 70.7 µM [inhibitor, partial curve, poor fit]"
[O-][Cl+2]([O-])O,Potency,[8],inactive
O=NN(c1ccccc1)c1ccccc1,Potency,[1],inactive
same,Potency,[6],inactive
O=C(C(Cl)(Cl)Cl)C(Cl)(Cl)Cl,Potency,[4],"inconclusive: 15.7 µM [rising, full curve]"
CC(=O)[O-].CC(=O)[O-].[Co+2],Potency,[4],inactive
ClC(Cl)=C(Cl)C(Cl)=C(Cl)Cl,Potency,[4],"inconclusive: 48.2 µM [rising, partial curve, poor fit]"
CC(=O)OC1(c2ccccc2)CCN(CCc2ccccc2)CC1,Potency,[1],"inconclusive: 55.8 µM [cytotoxic, partial curve]"
same,Potency,[2],active: 11.1 µM
CCC(Cl)CCl (centres undefined),Potency,[1],inactive
same,Potency,[9],inactive
same,Potency,[5],inactive
CCCCC(CC)COP(=O)(Oc1ccccc1)Oc1ccccc1 (centres undefined),Potency,[1],inactive
same,Potency,[2],active: 7.7 µM
NS(=O)(=O)C(F)(F)C(F)(F)C(F)(F)C(F)(F)C(F)(F)C(F)(F)C(F)(F)C(F)(F)F,Potency,[1],"inconclusive: 68.6 µM [cytotoxic, single point]"
same,Potency,[2],"inconclusive: 77 µM [activator, single point]"
same,Potency,[3],inactive
same,Potency,[5],"inconclusive: 14.2 µM [inhibitor, partial curve, poor fit]"
CCOP(=S)(NC(C)C)Oc1ccccc1C(=O)OC(C)C (centres undefined),Potency,[1],"inconclusive: 61.1 µM [cytotoxic, single point]"
same,Potency,[10],"inconclusive: 54.5 µM [cytotoxic, partial curve]"
same,Potency,[3],"inconclusive: 71 µM [inhibitor, partial curve]"
C#CCC1=C(C)C(OC(=O)C2C(C=C(C)C)C2(C)C)CC1=O (centres undefined),Potency,[1],"inconclusive: 68.1 µM [cytotoxic, single point]"
same,Potency,[2],active: 10.8 µM
same,Potency,[11],inactive
CCCCN(CCCC)N=O,Potency,[4],"inconclusive: 73.8 µM [cytotoxic, single point]"
same,Potency,[10],inactive
same,Potency,[2],"inconclusive: 65.8 µM [activator, partial curve, poor fit]"
same,Potency,[6],active: 12.1 µM
same,Potency,[12],"inconclusive: 85.7 µM [falling, partial curve, poor fit]"
O=C(O)COc1cc(Cl)c(Cl)cc1Cl,Potency,[4],"inconclusive: 30.7 µM [rising, partial curve]"
same,Potency,[10],"inconclusive: 17.2 µM [rising, partial curve, poor fit]"
same,Potency,[3],inconclusive: 63.4 µM [inhibitor]
same,Potency,[5],inactive
CCO[C@H]1O[C@@H]2OC3(C)CC[C@H]4[C@H](C)CC[C@@H]([C@H]1C)[C@@]24OO3,Potency,[4],active: 0.266 µM
same,Potency,[2],inactive
